# According to the supplement of paper PMC12217912:
# Some of the results follow. Sequences were assembled here from the parent chain. Values near 0.05 are background.
# B1: TEV protease; numbered along this chain (parent)
# chain: MGESLFKGPRDYNPISSSICHLTNESDGHTTSLYGIGFGPFIITNKHLFRRNNGTLVVQSLHGVFKVKDTTTLQQHLVDGRDMIIIRMPKDFPPFPQKLKFREPQREERICLVTTNFQTKSMSSMVSDTSCTFPSGDGIFWKHWIQTKDGQCGSPLVSTRDGFIVGIHSASNFTNTNNYFTSVPKNFMELLTNQEAQQWVSGWRLNADSVLWGGHKVFMVKPEEPFQPVKEATQL
# Variants of: B1
# Test: raw area under fraction-flipped curve 0-4 h after induction (AUC4h, not background-subtracted), DNA-recorder readout of cleavage of the substrate (dimensionless); higher = more cleavage of the substrate by the protease variant
# Conditions: temperature: 34 °C; time window: 0-4 h after rhamnose induction
# Method: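 In vivo DNA recorder in E. coli TOP10(DE3) ΔrhaA at 34 °C. Each TEVp single-site mutant (parent TEVp 0) is paired with a single-site variant of the 7-mer TEVs (canonical ENLYFQ|S). The substrate sits between flexible linkers in a Bxb1-sfGFP-TEVs-SsrA fusion, so cleavage stabilises Bxb1 and speeds flipping of a recombination array, read by NGS. The value is the raw area under the fraction-flipped curve over 0-4 h after rhamnose induction (AUC4h), with ≥20 reads per time point. It is not background-subtracted; inactive controls average about 0.047.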
# 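Further: Bxb1 expression induced with 0.2% (w/v) L-rhamnose at OD600 near 0.5, cultures sampled hourly, flipped fraction per protease–substrate barcode pair counted by paired-end Illumina sequencing.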
variant,measurement,value
MGESLFKGPRDYNPISSSICHLTNESDGHTTSLYGIGFGPFIITNKHLFRRNNGTLVVQSLHGVFKVKDTTTLQQHLVDGRDMIIIRMPKDFPPFPQKLKFREPQREEWICLVTTNFQTKSMSSMVSDTSCTFPSGDGIFWKHWIQTKDGQCGSPLVSTRDGFIVGIHSASNFTNTNNYFTSVPKNFMELLTNQEAQQWVSGWRLNADSVLWGGHKVFMVKPEEPFQPVKEATQL [R109W],area with substrate ENAYFQS,0.0696
same,area with substrate ENDYFQS,0.0628
same,area with substrate ENEYFQS,0.0578
same,area with substrate ENFYFQS,0.0644
same,area with substrate ENGYFQS,0.0625
same,area with substrate ENHYFQS,0.0484
same,area with substrate ENIYFQS,0.161
same,area with substrate ENKYFQS,0.06
same,area with substrate ENMYFQS,0.0776
same,area with substrate ENNYFQS,0.0584
same,area with substrate ENPYFQS,0.0707
same,area with substrate ENQYFQS,0.0628
same,area with substrate ENSYFQS,0.0584
same,area with substrate ENTYFQS,0.0831
same,area with substrate ENVYFQS,0.0593
same,area with substrate ENYYFQS,0.0577
MGESLFKGPRDYNPISSSICHLTNESDGHTTSLYGIGFGPFIITNKHLFRRNNGTLVVQSLHGVFKVKDTTTLQQHLVDGRDMIIIRMPKDFPPFPQKLKFREPQREERDCLVTTNFQTKSMSSMVSDTSCTFPSGDGIFWKHWIQTKDGQCGSPLVSTRDGFIVGIHSASNFTNTNNYFTSVPKNFMELLTNQEAQQWVSGWRLNADSVLWGGHKVFMVKPEEPFQPVKEATQL [I110D],area with substrate ENAYFQS,0.047
same,area with substrate ENCYFQS,0.057
same,area with substrate ENDYFQS,0.0489
same,area with substrate ENEYFQS,0.0524
same,area with substrate ENFYFQS,0.0425
same,area with substrate ENGYFQS,0.0591
same,area with substrate ENHYFQS,0.0653
same,area with substrate ENIYFQS,0.0455
same,area with substrate ENKYFQS,0.0728
same,area with substrate ENMYFQS,0.0389
same,area with substrate ENNYFQS,0.0772
same,area with substrate ENPYFQS,0.052
same,area with substrate ENQYFQS,0.0459
same,area with substrate ENRYFQS,0.0581
same,area with substrate ENSYFQS,0.0611
same,area with substrate ENTYFQS,0.0766
MGESLFKGPRDYNPISSSICHLTNESDGHTTSLYGIGFGPFIITNKHLFRRNNGTLVVQSLHGVFKVKDTTTLQQHLVDGRDMIIIRMPKDFPPFPQKLKFREPQREERGCLVTTNFQTKSMSSMVSDTSCTFPSGDGIFWKHWIQTKDGQCGSPLVSTRDGFIVGIHSASNFTNTNNYFTSVPKNFMELLTNQEAQQWVSGWRLNADSVLWGGHKVFMVKPEEPFQPVKEATQL [I110G],area with substrate ENAYFQS,0.0494
same,area with substrate ENCYFQS,0.0527
same,area with substrate ENEYFQS,0.0562
same,area with substrate ENGYFQS,0.0518
same,area with substrate ENHYFQS,0.0588
same,area with substrate ENIYFQS,0.0518
same,area with substrate ENNYFQS,0.0653
same,area with substrate ENQYFQS,0.0521
same,area with substrate ENSYFQS,0.0557
same,area with substrate ENTYFQS,0.0511
same,area with substrate ENVYFQS,0.0524
MGESLFKGPRDYNPISSSICHLTNESDGHTTSLYGIGFGPFIITNKHLFRRNNGTLVVQSLHGVFKVKDTTTLQQHLVDGRDMIIIRMPKDFPPFPQKLKFREPQREERTCLVTTNFQTKSMSSMVSDTSCTFPSGDGIFWKHWIQTKDGQCGSPLVSTRDGFIVGIHSASNFTNTNNYFTSVPKNFMELLTNQEAQQWVSGWRLNADSVLWGGHKVFMVKPEEPFQPVKEATQL [I110T],area with substrate ENAYFQS,0.0498
same,area with substrate ENCYFQS,0.0578
same,area with substrate ENDYFQS,0.0642
same,area with substrate ENGYFQS,0.0566
same,area with substrate ENHYFQS,0.0575
same,area with substrate ENIYFQS,0.0766
same,area with substrate ENMYFQS,0.0608
same,area with substrate ENNYFQS,0.0638
same,area with substrate ENPYFQS,0.0613
same,area with substrate ENQYFQS,0.0591
same,area with substrate ENRYFQS,0.0501
same,area with substrate ENSYFQS,0.0727
same,area with substrate ENVYFQS,0.0532
same,area with substrate ENWYFQS,0.0508
same,area with substrate ENYYFQS,0.0569
MGESLFKGPRDYNPISSSICHLTNESDGHTTSLYGIGFGPFIITNKHLFRRNNGTLVVQSLHGVFKVKDTTTLQQHLVDGRDMIIIRMPKDFPPFPQKLKFREPQREERIMLVTTNFQTKSMSSMVSDTSCTFPSGDGIFWKHWIQTKDGQCGSPLVSTRDGFIVGIHSASNFTNTNNYFTSVPKNFMELLTNQEAQQWVSGWRLNADSVLWGGHKVFMVKPEEPFQPVKEATQL [C111M],area with substrate ENAYFQS,0.0322
same,area with substrate ENCYFQS,0.0642
same,area with substrate ENDYFQS,0.102
same,area with substrate ENEYFQS,0.0687
same,area with substrate ENFYFQS,0.0481
same,area with substrate ENGYFQS,0.0541
same,area with substrate ENHYFQS,0.0613
same,area with substrate ENIYFQS,0.103
same,area with substrate ENNYFQS,0.06
same,area with substrate ENPYFQS,0.0646
same,area with substrate ENQYFQS,0.0709
same,area with substrate ENRYFQS,0.0828
same,area with substrate ENSYFQS,0.0673
same,area with substrate ENTYFQS,0.0609
same,area with substrate ENVYFQS,0.0752
MGESLFKGPRDYNPISSSICHLTNESDGHTTSLYGIGFGPFIITNKHLFRRNNGTLVVQSLHGVFKVKDTTTLQQHLVDGRDMIIIRMPKDFPPFPQKLKFREPQREERISLVTTNFQTKSMSSMVSDTSCTFPSGDGIFWKHWIQTKDGQCGSPLVSTRDGFIVGIHSASNFTNTNNYFTSVPKNFMELLTNQEAQQWVSGWRLNADSVLWGGHKVFMVKPEEPFQPVKEATQL [C111S],area with substrate ENAYFQS,0.062
same,area with substrate ENCYFQS,0.0628
same,area with substrate ENDYFQS,0.0652
same,area with substrate ENEYFQS,0.0663
same,area with substrate ENFYFQS,0.108
same,area with substrate ENGYFQS,0.0566
same,area with substrate ENHYFQS,0.0523
same,area with substrate ENKYFQS,0.0492
same,area with substrate ENMYFQS,0.0678
same,area with substrate ENNYFQS,0.0709
same,area with substrate ENPYFQS,0.0453
same,area with substrate ENQYFQS,0.0602
same,area with substrate ENRYFQS,0.0635
same,area with substrate ENSYFQS,0.0645
same,area with substrate ENTYFQS,0.0598
same,area with substrate ENVYFQS,0.0881
same,area with substrate ENWYFQS,0.0947
same,area with substrate ENYYFQS,0.0595
MGESLFKGPRDYNPISSSICHLTNESDGHTTSLYGIGFGPFIITNKHLFRRNNGTLVVQSLHGVFKVKDTTTLQQHLVDGRDMIIIRMPKDFPPFPQKLKFREPQREERICLGTTNFQTKSMSSMVSDTSCTFPSGDGIFWKHWIQTKDGQCGSPLVSTRDGFIVGIHSASNFTNTNNYFTSVPKNFMELLTNQEAQQWVSGWRLNADSVLWGGHKVFMVKPEEPFQPVKEATQL [V113G],area with substrate ENAYFQS,0.0734
same,area with substrate ENCYFQS,0.0737
same,area with substrate ENDYFQS,0.0494
same,area with substrate ENGYFQS,0.0647
same,area with substrate ENKYFQS,0.062
same,area with substrate ENQYFQS,0.0512
same,area with substrate ENRYFQS,0.0606
same,area with substrate ENSYFQS,0.0573
same,area with substrate ENTYFQS,0.0572
same,area with substrate ENVYFQS,0.0491
same,area with substrate ENWYFQS,0.0446
MGESLFKGPRDYNPISSSICHLTNESDGHTTSLYGIGFGPFIITNKHLFRRNNGTLVVQSLHGVFKVKDTTTLQQHLVDGRDMIIIRMPKDFPPFPQKLKFREPQREERICLVYTNFQTKSMSSMVSDTSCTFPSGDGIFWKHWIQTKDGQCGSPLVSTRDGFIVGIHSASNFTNTNNYFTSVPKNFMELLTNQEAQQWVSGWRLNADSVLWGGHKVFMVKPEEPFQPVKEATQL [T114Y],area with substrate ENAYFQS,0.0759
same,area with substrate ENCYFQS,0.074
same,area with substrate ENEYFQS,0.0578
same,area with substrate ENFYFQS,0.0617
same,area with substrate ENGYFQS,0.0721
same,area with substrate ENHYFQS,0.0728
same,area with substrate ENIYFQS,0.0966
same,area with substrate ENQYFQS,0.0615
same,area with substrate ENSYFQS,0.0615
same,area with substrate ENTYFQS,0.0599
same,area with substrate ENVYFQS,0.0727
same,area with substrate ENYYFQS,0.0641
MGESLFKGPRDYNPISSSICHLTNESDGHTTSLYGIGFGPFIITNKHLFRRNNGTLVVQSLHGVFKVKDTTTLQQHLVDGRDMIIIRMPKDFPPFPQKLKFREPQREERICLVTTNFQTKHMSSMVSDTSCTFPSGDGIFWKHWIQTKDGQCGSPLVSTRDGFIVGIHSASNFTNTNNYFTSVPKNFMELLTNQEAQQWVSGWRLNADSVLWGGHKVFMVKPEEPFQPVKEATQL [S121H],area with substrate ENAYFQS,0.0709
same,area with substrate ENCYFQS,0.0643
same,area with substrate ENDYFQS,0.0648
same,area with substrate ENEYFQS,0.0645
same,area with substrate ENGYFQS,0.0619
same,area with substrate ENHYFQS,0.0606
same,area with substrate ENIYFQS,0.123
same,area with substrate ENKYFQS,0.0669
same,area with substrate ENMYFQS,0.0563
same,area with substrate ENNYFQS,0.0355
same,area with substrate ENQYFQS,0.0594
same,area with substrate ENRYFQS,0.0521
same,area with substrate ENTYFQS,0.0744
same,area with substrate ENVYFQS,0.0479
same,area with substrate ENWYFQS,0.0601
same,area with substrate ENYYFQS,0.0645
